# Test results taken from PubChem BioAssay AID1671194 (National Center for Advancing Translational Sciences (NCATS), 2021).
# The whole screen tested about 140,000 compounds, of which about 240 (0.17%) were called active. The inconclusive results got no clear call from the source; some entries with a clear call stand among them for comparison. The call rests on the fitted dose curve; in most records, active means well fitted inhibition curve with a large enough effect; inconclusive means small, poorly fitted or top-dose-only effect; inactive means no such curve, though single readings can be large or run the other way. Potencies of inconclusive entries are doubtful fits and often do not repeat.
# Test: Primary qHTS assay for inhibitors of alpha-synuclein gene (SNCA) expression; further: nearly all actives have a fitted effect of over 45% in size
# Details: HEK-293 SNCA-luciferase knock-in, luminescence, 24 h; series mostly up to 57.2 µM
# Potency means the concentration at half of the fitted maximal effect; tags describe the fitted curve by direction and shape.
row,Compound,Potency
1,Cc1ccc(C2(O)CCN(c3ncccc3C(F)(F)F)CC2)nc1,inactive
2,Cc1ccc(N2C(=O)CSC23C(=O)N(CC(=O)NCc2ccccc2)c2ccccc23)cc1C (configuration not stated),"inconclusive: 0.447 µM [inhibitor, partial curve, poor fit]"
3,CNC(=O)CCn1ncc2cc(OCc3ccccc3-c3ccccc3OC)ccc21,"inconclusive: 1.78 µM [inhibitor, full curve, poor fit]"
4,Cc1cccc(-n2nc(-c3c(C)nc4scc(CC(=O)NCCC(C)C)n4c3=O)cc2C)c1,inactive
5,CCN(CC)CCNC(=O)c1ccc(Cn2c(SCc3ccccc3)nc3cccnc32)cc1,"inconclusive: 11.2 µM [inhibitor, single point]"
6,Cc1ccc2c(Sc3ccc(Cl)cc3)c(C(=O)N3CCC(C)CC3)[nH]c2c1,"inconclusive: 28.2 µM [inhibitor, single point]"
7,Fc1ccc(CN2CCNc3cnc(OCc4cccnc4)cc3C2)cc1F,"inconclusive: 7.94 µM [inhibitor, single point]"
8,COc1ccc(-c2c(-c3ccc(O)cc3O)n[nH]c2C)cc1,"inconclusive: 39.3 µM [inhibitor, partial curve, poor fit]"
9,O=C(C1CCCN([S+](=O)([O-])c2cccc(C(F)(F)F)c2)C1)N1CCC(c2ccccc2)CC1 (configuration not stated),"inconclusive: 10 µM [inhibitor, partial curve, poor fit]"
10,CCOC(=O)c1scc(-c2ccccc2)c1S(=O)(=O)Nc1cc(OC)cc(OC)c1,"inconclusive: 15.8 µM [inhibitor, single point]"
11,O=C(c1cnc2n[nH]c(-c3ccccc3)c2n1)N1CCN(c2ccccn2)CC1,"inconclusive: 3.55 µM [inhibitor, full curve, poor fit]"
12,COc1cc(OC)cc(C(=O)N2CCC(n3cc(-c4nc(C)no4)nn3)CC2)c1,"inconclusive: 8.91 µM [inhibitor, single point]"
13,Cc1cc2ccccc2n1CCNC(=O)c1cccc(Br)c1,"inconclusive: 7.08 µM [inhibitor, single point]"
14,CCOc1ccc(CC(=O)N2CC(c3nnc(-c4ccncc4)o3)C3(CCOCC3)C2)cc1 (configuration not stated),inactive
15,COc1cccc(N2CCN(C(=O)c3ccc(Cn4c(=O)[nH]c5cc(OC)c(OC)cc5c4=O)cc3)CC2)c1,"inconclusive: 25.1 µM [inhibitor, single point]"
16,Cc1cccc(-c2cccc(CN3CCC(NC(=O)C4CC4)CC3)c2)c1,inactive
17,COc1ccc(CCNC(=O)c2noc(-c3ccc(C)cc3)n2)cc1OC,"inconclusive: 0.708 µM [inhibitor, full curve, poor fit]"
18,CC(=O)NC1(C)CCN(Cc2ccc(-c3ccc4c(ccn4C)c3)cc2)C1 (configuration not stated),"inconclusive: 25.1 µM [inhibitor, single point]"
19,CCCC(=O)N(c1ccc2oc3c(c2c1)CCCC3)S(=O)(=O)c1cc(C)ccc1C,"inconclusive: 2.82 µM [inhibitor, single point]"

row,Compound,Potency
1,CCCCNc1nc2c(c(=O)n(Cc3ccc(Cl)cc3)c(=O)n2C)n1C,"inconclusive: 39.8 µM [inhibitor, single point]"
2,CCC(c1cccs1)N1C(=O)[C@H]2CN(CCC(C)C)C[C@H]2C1=O (some centres not stated),active: 3.55 µM
3,Cc1cccc(N2CCN(C(=O)CCCCn3c(=O)[nH]c4ccsc4c3=O)CC2)c1C,"inconclusive: 39.8 µM [inhibitor, single point]"
4,Cc1cc(Nc2cccc(Cl)c2)nc2ccc(NC(=O)Cc3cccc(C(F)(F)F)c3)cc12,"inconclusive: 39.8 µM [inhibitor, single point]"
5,COc1ccc(CNC(=O)c2ccc(NC(=O)N3CCCCc4ccccc43)cc2)cc1,"inconclusive: 25.1 µM [inhibitor, partial curve, poor fit]"
6,Cc1cccc(NC(=O)C(=O)NCC(c2ccc3c(c2)OCO3)N2CCN(C)CC2)c1C (configuration not stated),"inconclusive: 39.8 µM [inhibitor, single point]"
7,COc1cc(NC(=O)CSc2ncc(S(=O)(=O)c3ccc(Br)cc3)c(=O)[nH]2)cc(OC)c1,"inconclusive: 0.178 µM [inhibitor, single point]"
8,CN1CCCC2(CCN(C(=O)CN3CCOc4ccccc4C3)C2)C1=O (configuration not stated),"inconclusive: 39.8 µM [inhibitor, single point]"
9,O=C(Cc1c[nH]c2ncc(-c3ccccc3Oc3ccccc3)cc12)N1CCOCC1,"inconclusive: 39.8 µM [inhibitor, partial curve, poor fit]"
10,O=C(NCCCc1ccccc1)C1CCN(C(=O)N2CCOc3ccc(Cl)cc32)CC1,"inconclusive: 17.8 µM [inhibitor, single point]"
11,O=C1CCSC2(C(=O)N(Cc3ccc(F)cc3)c3ccccc32)N1c1ccc(F)c(F)c1 (configuration not stated),"inconclusive: 1.78 µM [inhibitor, partial curve, poor fit]"
12,COc1ccc(OC)c(CCNc2nc3ccccc3c3nc(-c4cccnc4)nn23)c1,"inconclusive: 7.08 µM [inhibitor, single point]"
13,Cc1ccc(C2Cn3nnc(-c4noc(C5CCCCC5)n4)c3CO2)cc1 (configuration not stated),"inconclusive: 8.91 µM [inhibitor, single point]"
14,O=C(c1ccccc1)N1Cc2[nH]cnc2C[C@H]1c1nc(-c2ccc(Cl)cc2)no1,"inconclusive: 50.1 µM [inhibitor, single point]"
15,Cc1noc(C)c1CO[C@@H]1CCOC[C@H]1NC(=O)c1ccc2c(c1)CCCO2,"inconclusive: 39.8 µM [inhibitor, single point]"
16,COc1ccc(-c2cc(C[C@@H]3CC[C@H](O)[C@@H](CN(Cc4ccccc4OC)Cc4ccccc4OC)O3)no2)cc1,"inconclusive: 39.8 µM [inhibitor, single point]"
17,CC(C)(C)OC(=O)N1CCC(c2c(C(=O)NCCN3CCC(Cc4ccccc4)CC3)cnn2-c2ccc(F)cc2)CC1,"inconclusive: 39.8 µM [inhibitor, single point]"
18,CS(=O)(=O)N1CCC(C2CCN(C(=O)Cc3cccc(F)c3)C2)CC1 (configuration not stated),"inconclusive: 20 µM [inhibitor, partial curve, poor fit]"
